# Measurements taken from the supplement of paper PMC8728848.
# This is one part of the list.
# B1: Pa IMPa (Pseudomonas aeruginosa), Q9I5W4 (protein)
# chain: MSLSTTAFPSLQGENMSRSPIPRHRALLAGFCLAGALSAQAATQEEILDAALVSGDSSQLTDSHLVALRLQQQVERIRQTRTQLLDGLYQNLSQAYDPGAASMWVLPANPDNTLPFLIGDKGRVLASLSLEAGGRGLAYGTNVLTQLSGTNAAHAPLLKRAVQWLVNGDPGAATAKDFKVSVVGVDKTAALNGLKSAGLQPADAACNALTDASCASTSKLLVLGNGASAASLSATVRARLQAGLPILFVHTNGWNQSSTGQQILAGLGLQEGPYGGNYWDKDRVPSSRTRTRSVELGGAYGQDPALVQQIVDGSWRTDYDWSKCTSYVGRTTCDDVPGLSDFSKRVDVLKGALDAYNQKAQNLFALPGTTSLRLWLLWADAVRQNIRYPMDKAADTARFQETFVADAIVGYVREAGAAQKELGSYAGQRQQSMPVSGSEETLTLTLPSAQGFTAIGRMAAPGKRLSIRIEDAGQASLAVGLNTQRIGSTRLWNTRQYDRPRFLKSPDIKLQANQSVALVSPYGGLLQLVYSGATPGQTVTVKVTGAASQPFLDIQPGEDSSQAIADFIQALDADKADWLEIRSGSVEVHAKVEKVRGSIDKDYGGDVQRFIRELNEVFIDDAYTLAGFAIPNQAKTPAIQQECAARGWDCDSETLHKLPGTQHINVDQYAQCGGGCSGNPYDQTWGLNPRGWGESHELGHNLQVNRLKVYGGRSGEISNQIFPLHKDWRVLREFGQNLDDTRVNYRNAYNLIVAGRAEADPLAGVYKRLWEDPGTYALNGERMAFYTQWVHYWADLKNDPLQGWDIWTLLYLHQRQVDKSDWDANKAALGYGTYAQRPGNSGDASSTDGNDNLLLGLSWLTQRDQRPTFALWGIRTSAAAQAQVAAYGFAEQPAFFYANNRTNEYSTVKLLDMSQGSPAWPFP
# Columns and labels:
# Assay in all cases: glycan array binding signal (z-score within array); higher = stronger binding
# Conditions in all cases: glycan notation: IUPAC condensed, linker removed
# [1] = molecular target: GlcNAc(b1-2)Gal(b1-3)GalNAc
# In short: (§1)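 Columns mapping to the same glycan were averaged after glycan names were converted to IUPAC-condensed notation. The data come from 3228 arrays in the Consortium for Functional Glycomics database, limited to those with an available protein sequence. Binding is reported as a within-array Z-score averaged across arrays of one protein sequence and across linkers.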
# [2] = molecular target: GlcNAc(b1-2)Man(a1-3)[GlcNAc(b1-2)Man(a1-6)]Man(b1-4)GlcNAc(b1-4)GlcNAc
# In short: as §1
# [3] = molecular target: GlcNAc(b1-2)Man(a1-3)[GlcNAc(b1-2)Man(a1-6)]Man(b1-4)GlcNAc(b1-4)[Fuc(a1-6)]GlcNAc
# In short: as §1
# [4] = molecular target: GlcNAc(b1-2)Man(a1-3)[GlcNAc(b1-4)][GlcNAc(b1-2)Man(a1-6)]Man(b1-4)GlcNAc(b1-4)GlcNAc
# In short: as §1
# [5] = molecular target: GlcNAc(b1-2)Man(a1-3)[GlcNAc(b1-4)][GlcNAc(b1-2)Man(a1-6)]Man(b1-4)GlcNAc(b1-4)[Fuc(a1-6)]GlcNAc
# In short: as §1
# [6] = molecular target: GlcNAc(b1-2)[GlcNAc(b1-4)]Man(a1-3)[GlcNAc(b1-2)Man(a1-6)]Man(b1-4)GlcNAc(b1-4)GlcNAc
# In short: as §1
# [7] = molecular target: GlcNAc(b1-2)[GlcNAc(b1-4)]Man(a1-3)[GlcNAc(b1-4)][GlcNAc(b1-2)Man(a1-6)]Man(b1-4)GlcNAc(b1-4)GlcNAc
# In short: as §1
# [8] = molecular target: GlcNAc(b1-2)[GlcNAc(b1-4)]Man(a1-3)[GlcNAc(b1-4)][GlcNAc(b1-2)[GlcNAc(b1-6)]Man(a1-6)]Man(b1-4)GlcNAc(b1-4)GlcNAc
# In short: as §1
# [9] = molecular target: GlcNAc(b1-2)[GlcNAc(b1-4)]Man(a1-3)[GlcNAc(b1-4)][GlcNAc(b1-2)[GlcNAc(b1-6)]Man(a1-6)]Man(b1-4)GlcNAc(b1-4)[Fuc(a1-6)]GlcNAc
# In short: as §1
# [10] = molecular target: GlcNAc(b1-2)[GlcNAc(b1-6)]Man(a1-6)[GlcNAc(b1-2)Man(a1-3)]Man(b1-4)GlcNAc(b1-4)GlcNAc
# In short: as §1
# [11] = molecular target: GlcNAc(b1-2)[GlcNAc(b1-6)]Man(a1-6)[GlcNAc(b1-2)Man(a1-3)]Man(b1-4)GlcNAc(b1-4)[Fuc(a1-6)]GlcNAc
# In short: as §1
# [12] = molecular target: GlcNAc(b1-2)[GlcNAc(b1-6)]Man(a1-6)[GlcNAc(b1-4)][GlcNAc(b1-2)Man(a1-3)]Man(b1-4)GlcNAc(b1-4)GlcNAc
# In short: as §1
# GlcNAc(b1-3)Fuc = molecular target: GlcNAc(b1-3)Fuc
# In short: as §1
# GlcNAc(b1-3)Gal = molecular target: GlcNAc(b1-3)Gal
# In short: as §1
# [13] = molecular target: GlcNAc(b1-3)Gal(b1-3)GalNAc
# In short: as §1
# GlcNAc(b1-3)Gal(b1-4)Glc = molecular target: GlcNAc(b1-3)Gal(b1-4)Glc
# In short: as §1
# [14] = molecular target: GlcNAc(b1-3)Gal(b1-4)GlcNAc
# In short: as §1
# [15] = molecular target: GlcNAc(b1-3)Gal(b1-4)GlcNAc(b1-2)Man(a1-3)[GlcNAc(b1-3)Gal(b1-4)GlcNAc(b1-2)Man(a1-6)]Man(b1-4)GlcNAc(b1-4)GlcNAc
# In short: as §1
# [16] = molecular target: GlcNAc(b1-3)Gal(b1-4)GlcNAc(b1-2)Man(a1-3)[GlcNAc(b1-3)Gal(b1-4)GlcNAc(b1-2)Man(a1-6)]Man(b1-4)GlcNAc(b1-4)[Fuc(a1-6)]GlcNAc
# In short: as §1
# [17] = molecular target: GlcNAc(b1-3)Gal(b1-4)GlcNAc(b1-2)[GlcNAc(b1-3)Gal(b1-4)GlcNAc(b1-6)]Man(a1-6)[GlcNAc(b1-3)Gal(b1-4)GlcNAc(b1-2)Man(a1-3)]Man(b1-4)GlcNAc(b1-4)GlcNAc
# In short: as §1
# [18] = molecular target: GlcNAc(b1-3)Gal(b1-4)GlcNAc(b1-3)Gal(b1-4)GlcNAc
# In short: as §1
# [19] = molecular target: GlcNAc(b1-3)Gal(b1-4)GlcNAc(b1-3)Gal(b1-4)GlcNAc(b1-2)Man(a1-3)[GlcNAc(b1-3)Gal(b1-4)GlcNAc(b1-3)Gal(b1-4)GlcNAc(b1-2)Man(a1-6)]Man(b1-4)GlcNAc(b1-4)GlcNAc
# In short: as §1
# [20] = molecular target: GlcNAc(b1-3)Gal(b1-4)GlcNAc(b1-3)Gal(b1-4)GlcNAc(b1-2)Man(a1-3)[GlcNAc(b1-3)Gal(b1-4)GlcNAc(b1-3)Gal(b1-4)GlcNAc(b1-2)Man(a1-6)]Man(b1-4)GlcNAc(b1-4)[Fuc(a1-6)]GlcNAc
# In short: as §1
# [21] = molecular target: GlcNAc(b1-3)Gal(b1-4)GlcNAc(b1-3)Gal(b1-4)GlcNAc(b1-2)[GlcNAc(b1-3)Gal(b1-4)GlcNAc(b1-3)Gal(b1-4)GlcNAc(b1-6)]Man(a1-6)[GlcNAc(b1-3)Gal(b1-4)GlcNAc(b1-3)Gal(b1-4)GlcNAc(b1-2)Man(a1-3)]Man(b1-4)GlcNAc(b1-4)[Fuc(a1-6)]GlcNAc
# In short: as §1
# [22] = molecular target: GlcNAc(b1-3)Gal(b1-4)GlcNAc(b1-3)Gal(b1-4)GlcNAc(b1-3)Gal(b1-4)GlcNAc(b1-2)Man(a1-3)[GlcNAc(b1-3)Gal(b1-4)GlcNAc(b1-3)Gal(b1-4)GlcNAc(b1-3)Gal(b1-4)GlcNAc(b1-2)Man(a1-6)]Man(b1-4)GlcNAc(b1-4)GlcNAc
# In short: as §1
# [23] = molecular target: GlcNAc(b1-3)Gal(b1-4)GlcNAc(b1-3)Gal(b1-4)GlcNAc(b1-3)Gal(b1-4)GlcNAc(b1-2)Man(a1-3)[GlcNAc(b1-3)Gal(b1-4)GlcNAc(b1-3)Gal(b1-4)GlcNAc(b1-3)Gal(b1-4)GlcNAc(b1-2)Man(a1-6)]Man(b1-4)GlcNAc(b1-4)[Fuc(a1-6)]GlcNAc
# In short: as §1
# [24] = molecular target: GlcNAc(b1-3)Gal(b1-4)GlcNAc(b1-3)Gal(b1-4)GlcNAc(b1-3)Gal(b1-4)GlcNAc(b1-2)[GlcNAc(b1-3)Gal(b1-4)GlcNAc(b1-3)Gal(b1-4)GlcNAc(b1-3)Gal(b1-4)GlcNAc(b1-6)]Man(a1-6)[GlcNAc(b1-3)Gal(b1-4)GlcNAc(b1-3)Gal(b1-4)GlcNAc(b1-3)Gal(b1-4)GlcNAc(b1-2)Man(a1-3)]Man(b1-4)GlcNAc(b1-4)[Fuc(a1-6)]GlcNAc
# In short: as §1
# [25] = molecular target: GlcNAc(b1-3)Gal(b1-4)GlcNAc(b1-3)Gal(b1-4)GlcNAc(b1-3)Gal(b1-4)GlcNAc(b1-3)Gal(b1-4)GlcNAc(b1-2)Man(a1-3)[GlcNAc(b1-3)Gal(b1-4)GlcNAc(b1-3)Gal(b1-4)GlcNAc(b1-3)Gal(b1-4)GlcNAc(b1-3)Gal(b1-4)GlcNAc(b1-2)Man(a1-6)]Man(b1-4)GlcNAc(b1-4)GlcNAc
# In short: as §1
# [26] = molecular target: GlcNAc(b1-3)Gal(b1-4)GlcNAc(b1-3)Gal(b1-4)GlcNAc(b1-3)Gal(b1-4)GlcNAc(b1-3)Gal(b1-4)GlcNAc(b1-2)Man(a1-3)[GlcNAc(b1-3)Gal(b1-4)GlcNAc(b1-3)Gal(b1-4)GlcNAc(b1-3)Gal(b1-4)GlcNAc(b1-3)Gal(b1-4)GlcNAc(b1-2)Man(a1-6)]Man(b1-4)GlcNAc(b1-4)[Fuc(a1-6)]GlcNAc
# In short: as §1
# [27] = molecular target: GlcNAc(b1-3)Gal(b1-4)GlcNAc(b1-3)Gal(b1-4)GlcNAc(b1-3)Gal(b1-4)GlcNAc(b1-3)Gal(b1-4)GlcNAc(b1-2)[GlcNAc(b1-3)Gal(b1-4)GlcNAc(b1-3)Gal(b1-4)GlcNAc(b1-3)Gal(b1-4)GlcNAc(b1-3)Gal(b1-4)GlcNAc(b1-6)]Man(a1-6)[GlcNAc(b1-3)Gal(b1-4)GlcNAc(b1-3)Gal(b1-4)GlcNAc(b1-3)Gal(b1-4)GlcNAc(b1-3)Gal(b1-4)GlcNAc(b1-2)Man(a1-3)]Man(b1-4)GlcNAc(b1-4)[Fuc(a1-6)]GlcNAc
# In short: as §1
binder,measurement,setting,value
B1,glycan array binding signal (z-score),[1],-0.639
same,glycan array binding signal (z-score),[2],0.017
same,glycan array binding signal (z-score),[3],0.384
same,glycan array binding signal (z-score),[4],0.309
same,glycan array binding signal (z-score),[5],0.448
same,glycan array binding signal (z-score),[6],0.309
same,glycan array binding signal (z-score),[7],0.103
same,glycan array binding signal (z-score),[8],-0.126
same,glycan array binding signal (z-score),[9],1.41
same,glycan array binding signal (z-score),[10],0.261
same,glycan array binding signal (z-score),[11],-0.04
same,glycan array binding signal (z-score),[12],-0.318
same,glycan array binding signal (z-score),GlcNAc(b1-3)Fuc,1.37
same,glycan array binding signal (z-score),GlcNAc(b1-3)Gal,-0.457
same,glycan array binding signal (z-score),[13],-0.376
same,glycan array binding signal (z-score),GlcNAc(b1-3)Gal(b1-4)Glc,-0.08
same,glycan array binding signal (z-score),[14],-0.489
same,glycan array binding signal (z-score),[15],-0.372
same,glycan array binding signal (z-score),[16],0.045
same,glycan array binding signal (z-score),[17],0.568
same,glycan array binding signal (z-score),[18],-0.315
same,glycan array binding signal (z-score),[19],-0.305
same,glycan array binding signal (z-score),[20],-0.061
same,glycan array binding signal (z-score),[21],0.607
same,glycan array binding signal (z-score),[22],-0.522
same,glycan array binding signal (z-score),[23],-0.177
same,glycan array binding signal (z-score),[24],-0.116
same,glycan array binding signal (z-score),[25],-0.526
same,glycan array binding signal (z-score),[26],7.78
same,glycan array binding signal (z-score),[27],0.125
